Reference: the supplement of paper PMC12217912
The other results are listed elsewhere or left out. Sequences were assembled here from the parent chain. Values near 0.05 are background.

B1: TEV protease; numbered along this chain (parent)
chain: MGESLFKGPRDYNPISSSICHLTNESDGHTTSLYGIGFGPFIITNKHLFRRNNGTLVVQSLHGVFKVKDTTTLQQHLVDGRDMIIIRMPKDFPPFPQKLKFREPQREERICLVTTNFQTKSMSSMVSDTSCTFPSGDGIFWKHWIQTKDGQCGSPLVSTRDGFIVGIHSASNFTNTNNYFTSVPKNFMELLTNQEAQQWVSGWRLNADSVLWGGHKVFMVKPEEPFQPVKEATQL

Variants of: B1
Test: raw area under fraction-flipped curve 0-4 h after induction (AUC4h, not background-subtracted), DNA-recorder readout of cleavage of the substrate (dimensionless); higher = more cleavage of the substrate by the protease variant
Conditions: temperature: 34 °C; time window: 0-4 h after rhamnose induction
Description: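 In vivo DNA recorder in E. coli TOP10(DE3) ΔrhaA at 34 °C. Each TEVp single-site mutant (parent TEVp 0) is paired with a single-site variant of the 7-mer TEVs (canonical ENLYFQ|S). The substrate sits between flexible linkers in a Bxb1-sfGFP-TEVs-SsrA fusion, so cleavage stabilises Bxb1 and speeds flipping of a recombination array, read by NGS. The value is the raw area under the fraction-flipped curve over 0-4 h after rhamnose induction (AUC4h), with ≥20 reads per time point. It is not background-subtracted; inactive controls average about 0.047.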
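Further: Bxb1 expression induced with 0.2% (w/v) L-rhamnose at OD600 near 0.5, cultures sampled hourly, flipped fraction per protease–substrate barcode pair counted by paired-end Illumina sequencing.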

Variant	area with substrate ECLYFQS	area with substrate EDLYFQS	area with substrate EHLYFQS	area with substrate EILYFQS	area with substrate EKLYFQS	area with substrate EMLYFQS	area with substrate EPLYFQS	area with substrate EQLYFQS	area with substrate ESLYFQS	area with substrate EELYFQS	area with substrate EFLYFQS	area with substrate ELLYFQS	area with substrate ERLYFQS	area with substrate EWLYFQS	area with substrate EGLYFQS	area with substrate EVLYFQS	area with substrate EYLYFQS	area with substrate ETLYFQS
D161M	0.0555	0.0624	0.0644	0.0622	0.0484	0.0653	0.0402	0.047	0.0591	–	–	–	–	–	–	–	–	–
D161I	0.0603	–	0.0517	0.086	0.0602	–	–	–	0.0453	0.0517	0.0575	0.0609	0.0446	0.0597	–	–	–	–
S169P	0.0618	0.0375	0.066	–	0.0425	0.0362	0.0605	0.0269	0.0629	0.0571	0.0544	0.0558	0.0657	–	0.0479	0.06	0.0625	–
L205T	0.0699	–	–	–	0.0697	–	–	–	–	0.0692	–	–	–	–	–	–	–	–
W141E	0.0598	0.0684	–	–	–	–	–	0.0441	0.0528	–	–	0.0675	–	–	0.0598	0.0542	–	–
L156T	0.0933	–	0.0986	0.0996	–	0.123	–	0.112	–	0.115	0.129	0.0957	0.0728	–	–	0.0659	–	–
F140N	0.0619	0.0543	–	0.0517	0.07	0.0452	–	0.0564	0.0628	0.0561	0.0677	0.0662	0.0786	–	0.0651	0.0603	0.0541	0.0519
F140Y	0.0893	0.116	–	0.0749	0.0902	0.104	0.115	0.0925	–	–	–	–	–	0.0977	–	0.0623	–	–
F140Q	0.0611	0.0584	–	–	0.0755	–	–	–	0.0623	–	–	0.065	–	–	–	–	–	–
F173C	0.0547	–	–	0.0565	–	0.0788	0.097	0.104	0.0745	0.0727	–	–	–	–	–	–	0.0795	0.11
F173N	0.075	0.103	–	0.0555	0.0782	–	0.0867	–	0.0811	0.0997	–	–	0.0626	–	0.0568	0.0795	0.0841	–
F173Y	0.0468	0.128	0.121	0.0894	–	0.104	0.155	0.0991	0.0874	–	–	–	–	–	0.0882	0.0788	–	0.131
H215P	0.0478	0.0123	–	0.0543	0.0919	0.0617	–	0.0673	0.0638	0.0795	–	–	0.0522	0.0618	0.0639	0.0561	0.0506	–
G214P	0.0651	–	0.0685	0.0597	–	0.0683	0.0828	–	0.0427	0.0828	–	–	0.0503	0.0684	–	0.0621	–	–
G214R	0.0687	0.0751	0.0907	0.0755	–	0.0744	0.119	0.0681	0.0849	0.102	–	–	0.0764	0.078	0.0636	0.0716	–	–
A207W	0.114	–	–	0.0778	–	0.101	–	0.105	0.082	0.0064	0.006	0.0821	–	0.085	0.0891	0.0865	–	–
A207Q	0.11	–	0.102	0.102	–	–	–	–	0.105	0.132	0.103	0.0881	0.104	–	–	–	0.0857	0.124
